Here are results for 23 molecules from the supplement of paper PMC4604168 (melanoma cell lines).

Molecules are shown by their SMILES. This is one part of the list. Most values come without repeats; read them as rough.

Among the test systems are WM115; WM1716; WM1745; WM3526; WM3619; WM451Lu.
Common to all, as to assay: cell count relative to DMSO control; melanoma cells; higher = more viable cells
Common to all, as to settings: library dose: low library concentration; 72 h
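Further: cell number obtained by counting DAPI-stained nuclei in high-throughput microscope images with image analysis software, screen run in 1,536-well plates.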

Regarding `C[C@]1(O)C[C@@H](c2nc(-c3ccc4ccc(-c5ccccc5)nc4c3)c3c(N)nccn32)C1` + Cc1cc([N+](=O)[O-])ccc1NS(=O)(=O)c1cc(Cl)ccc1Cl [FH535] (first compound 0.4 µM, partner dose 1 µM), the cell count is 92.5% in the assay with WM115; 93.3% with WM1716; 76% in the assay with WM1745; 77% in the assay with WM3526; 89.2% with WM3619; 88.4% with WM451Lu.

Take `C[C@]1(O)C[C@@H](c2nc(-c3ccc4ccc(-c5ccccc5)nc4c3)c3c(N)nccn32)C1` + O=C1NC(=O)/C(=C/c2ccc(-c3ccc(F)cc3O)o2)S1 [AS252424] (first compound 0.4 µM, partner dose 1 µM): the cell count is 97% with WM115; 113% with WM1716; 79.8% with WM1745; 82% in the assay on WM3526; 98.5% in the assay with WM3619; 106% in the assay with WM451Lu.

As to `CCN(CC)CCNC(=O)c1c(C)[nH]c(/C=C2\C(=O)Nc3ccc(F)cc32)c1C` [sunitinib] + Cc1cc(Nc2cc(N3CCN(C)CC3)nc(/C=C/c3ccccc3)n2)n[nH]1 [ENMD2076] (first compound 0.4 µM, partner dose 0.04 µM), the cell count with WM115 came to 96%; in the assay with WM1716, 164%; in the assay with WM1745, 97.4%; in the assay with WM3526 it was 83.8%; in the assay with WM3619 it was 115%; in the assay on WM451Lu, 125%.

On to `C[C@]1(O)C[C@@H](c2nc(-c3ccc4ccc(-c5ccccc5)nc4c3)c3c(N)nccn32)C1` + COc1cc(Nc2ncc(F)c(Nc3ccc4c(n3)NC(=O)C(C)(C)O4)n2)cc(OC)c1OC [Tamatinib] (first compound 0.4 µM, partner dose 0.4 µM), for which the cell count with WM115 was 87.2%; with WM1716 it was 93.2%; with WM1745, 48.8%; in the assay with WM3526, 59%; in the assay on WM3619, 107%; in the assay with WM451Lu, 89.4%.

Regarding `COc1cc([C@@H]2c3cc4c(cc3[C@@H](O[C@@H]3O[C@@H]5CO[C@@H](C)O[C@H]5[C@H](O)[C@H]3O)[C@H]3COC(=O)[C@H]23)OCO4)cc(OC)c1O` [etoposide] + Cn1cc(/C=C2\C(=O)Nc3cccnc32)c2ccccc21 [GW441756] (first compound 0.02 µM, partner dose 0.4 µM), the cell count was found to be 78.8% with WM115; 86.5% in the assay with WM1716; 99.9% with WM1745; 120% in the assay on WM3526; 89.6% in the assay on WM3619; 97.2% in the assay with WM451Lu.

In the case of `C[C@]1(O)C[C@@H](c2nc(-c3ccc4ccc(-c5ccccc5)nc4c3)c3c(N)nccn32)C1` + NC(=O)Nc1cc(-c2cccc(F)c2)sc1C(=O)N[C@H]1CCCNC1 [AZD7762] (first compound 0.4 µM, partner dose 0.02 µM), the cell count in the assay on WM115 turned out to be 90.6%; with WM1716 it was 91.8%; in the assay with WM1745 it was 67.2%; with WM3526 it was 62.5%; in the assay on WM3619, 47.3%; with WM451Lu, 110%.

On to `Cn1cnc2c(F)c(Nc3ccc(Br)cc3Cl)c(C(=O)NOCCO)cc21` [selumetinib] + Cc1cc([N+](=O)[O-])ccc1NS(=O)(=O)c1cc(Cl)ccc1Cl [FH535] (first compound 0.015 µM, partner dose 1 µM), for which the cell count with WM115 was 76.8%; with WM1716, 107%; in the assay on WM1745 it was 87.5%; in the assay with WM3526, 77.1%; in the assay on WM3619 it was 85%; in the assay with WM451Lu it was 85.4%.

In the case of `Cn1cnc2c(F)c(Nc3ccc(Br)cc3Cl)c(C(=O)NOCCO)cc21` [selumetinib] + CS(=O)(=O)c1ccc(C(=O)Nc2ccc(Cl)c(-c3ccccn3)c2)c(Cl)c1 [vismodegib] (first compound 0.015 µM, partner dose 1 µM), the cell count in the assay on WM115 came to 92.5%; with WM1716, 95.1%; in the assay on WM1745, 86.4%; in the assay on WM3526, 87.1%; in the assay with WM3619, 72.5%; in the assay on WM451Lu, 129%.

As for `Cn1cnc2c(F)c(Nc3ccc(Br)cc3Cl)c(C(=O)NOCCO)cc21` [selumetinib] + OCCn1cc(-c2cnc3nnn(Cc4ccc5ncccc5c4)c3n2)cn1 [PF04217903] (first compound 0.015 µM, partner dose 1 µM), the cell count with WM115 worked out at 84.3%; in the assay on WM1716, 105%; in the assay with WM1745, 106%; in the assay on WM3526, 83.1%; with WM3619, 90.5%; with WM451Lu it was 96.5%.

Take `C[C@]1(O)C[C@@H](c2nc(-c3ccc4ccc(-c5ccccc5)nc4c3)c3c(N)nccn32)C1` + O=C(CCCCCCC(=O)Nc1ccccc1)NO [vorinostat] (first compound 0.4 µM, partner dose 0.08 µM): the cell count with WM115 turned out to be 104%; in the assay on WM1716 it was 97.3%; in the assay on WM1745, 90.5%; with WM3526, 70.3%; in the assay on WM3619, 81.6%; in the assay with WM451Lu, 80.5%.

For `CCN(CC)CCNC(=O)c1c(C)[nH]c(/C=C2\C(=O)Nc3ccc(F)cc32)c1C` [sunitinib] + COc1cc2ncnc(Nc3ccc(Oc4ccccc4)cc3)c2cc1OC [SrcI1] (first compound 0.4 µM, partner dose 2 µM), the cell count with WM115 stood at 101%; in the assay with WM1716 it was 146%; in the assay on WM1745, 70.7%; in the assay on WM3526 it was 62.6%; in the assay on WM3619 it was 112%; in the assay on WM451Lu, 93.6%.

As to `Cn1cnc2c(F)c(Nc3ccc(Br)cc3Cl)c(C(=O)NOCCO)cc21` [selumetinib] + NC(=O)c1ccc(N(C(N)=O)c2c(F)cccc2F)nc1-c1ccc(F)cc1F [VX702] (first compound 0.015 µM, partner dose 0.4 µM), the cell count was 90.1% in the assay with WM115; 114% with WM1716; 81.2% in the assay with WM1745; 64.7% in the assay with WM3526; 87.1% with WM3619; 92.1% in the assay with WM451Lu.

For `Cn1cnc2c(F)c(Nc3ccc(Br)cc3Cl)c(C(=O)NOCCO)cc21` [selumetinib] + CCN(CC)CCCCNc1ncc2cc(-c3cc(OC)cc(OC)c3)c(NC(=O)NC(C)(C)C)nc2n1 [PD173074] (first compound 0.015 µM, partner dose 0.1 µM), the cell count in the assay on WM115 worked out at 98.5%; with WM1716, 109%; with WM1745 it was 94%; in the assay on WM3526, 75.7%; in the assay on WM3619 it was 92%; in the assay with WM451Lu, 99.9%.

In the case of `Cn1cnc2c(F)c(Nc3ccc(Br)cc3Cl)c(C(=O)NOCCO)cc21` [selumetinib] + CN(c1ncccc1CNc1nc(Nc2ccc3c(c2)CC(=O)N3)ncc1C(F)(F)F)S(C)(=O)=O [PF562271] (first compound 0.015 µM, partner dose 0.08 µM), the cell count in the assay on WM115 turned out to be 74.7%; in the assay with WM1716 it was 94%; with WM1745 it was 85.6%; in the assay with WM3526, 72.7%; in the assay with WM3619, 89.3%; in the assay on WM451Lu, 83%.

With `C[C@]1(O)C[C@@H](c2nc(-c3ccc4ccc(-c5ccccc5)nc4c3)c3c(N)nccn32)C1` + NC1(c2ccc(-c3nc4ccn5c(=O)[nH]nc5c4cc3-c3ccccc3)cc2)CCC1 [MK2206] (first compound 0.4 µM, partner dose 0.4 µM), the cell count in the assay with WM115 was 80.8%; in the assay with WM1716, 102%; with WM1745 it was 89.7%; in the assay with WM3526, 70.5%; with WM3619, 95.3%; in the assay with WM451Lu, 142%.

In the case of `C[C@]1(O)C[C@@H](c2nc(-c3ccc4ccc(-c5ccccc5)nc4c3)c3c(N)nccn32)C1` + Clc1ccc(Nc2nnc(Cc3ccncc3)c3ccccc23)cc1 [vatalanib] (first compound 0.4 µM, partner dose 2 µM), the cell count was 104% with WM115; 96.2% in the assay with WM1716; 79.5% in the assay on WM1745; 96.2% in the assay with WM3526; 94.5% with WM3619; 113% in the assay with WM451Lu.

In the case of `Cn1cnc2c(F)c(Nc3ccc(Br)cc3Cl)c(C(=O)NOCCO)cc21` [selumetinib] + NCC(=O)Nc1ccc(-n2nc(C(F)(F)F)cc2-c2ccc3c(ccc4ccccc43)c2)cc1 [OSU03012] (first compound 0.015 µM, partner dose 1 µM), the cell count in the assay with WM115 was 86.3%; in the assay with WM1716 it was 118%; with WM1745, 113%; with WM3526, 51.8%; in the assay with WM3619 it was 73.3%; with WM451Lu, 71.3%.

With `CCN(CC)CCNC(=O)c1c(C)[nH]c(/C=C2\C(=O)Nc3ccc(F)cc32)c1C` [sunitinib] + Nc1ccn([C@@H]2O[C@H](CO)[C@@H](O)C2(F)F)c(=O)n1 [gemcitabine] (first compound 0.4 µM, partner dose 0.0004 µM), the cell count in the assay with WM115 came out at 125%; with WM1716, 145%; in the assay on WM1745, 75.9%; with WM3526 it was 82.5%; with WM3619 it was 81.7%; in the assay on WM451Lu, 93.6%.

Take `C[C@]1(O)C[C@@H](c2nc(-c3ccc4ccc(-c5ccccc5)nc4c3)c3c(N)nccn32)C1` + CCCS(=O)(=O)Nc1ccc(F)c(C(=O)c2c[nH]c3ncc(Cl)cc23)c1F [PLX4720] (first compound 0.4 µM, partner dose 0.08 µM): the cell count was determined as 104% in the assay on WM115; 117% with WM1716; 69.5% with WM1745; 84% with WM3526; 76.3% in the assay on WM3619; 122% in the assay with WM451Lu.

In the case of `Cn1cnc2c(F)c(Nc3ccc(Br)cc3Cl)c(C(=O)NOCCO)cc21` [selumetinib] + COCC[n+]1c2c(n(Cc3cnccn3)c1C)C(=O)c1ccccc1C2=O [YM155] (first compound 0.015 µM, partner dose 0.0004 µM), the cell count in the assay on WM115 came out at 91.5%; with WM1716, 94.9%; with WM1745 it was 108%; in the assay with WM3526 it was 82.8%; in the assay on WM3619 it was 79.3%; with WM451Lu, 77.7%.

For `C[C@]1(O)C[C@@H](c2nc(-c3ccc4ccc(-c5ccccc5)nc4c3)c3c(N)nccn32)C1` + COc1cc2c(Oc3ccc4[nH]c(C)cc4c3F)ncnc2cc1OCCCN1CCCC1 [cediranib] (first compound 0.4 µM, partner dose 0.4 µM), the cell count was 115% with WM115; 119% in the assay with WM1716; 74.9% in the assay on WM1745; 111% in the assay with WM3526; 113% with WM3619; 54.4% in the assay with WM451Lu.

`C[C@]1(O)C[C@@H](c2nc(-c3ccc4ccc(-c5ccccc5)nc4c3)c3c(N)nccn32)C1` + O=C(O)[C@@H]1[O][Sb](=[O])([O][Sb]2(=[O])[O][C@H]([C@H](O)CO)[C@H](O)[C@H](C(=O)O)[O]2)[O][C@H]([C@H](O)CO)[C@@H]1O [stibogluconate] (first compound 0.4 µM, partner dose 2 µM): the cell count was 133% in the assay with WM115; 94.7% in the assay with WM1716; 74.2% in the assay with WM1745; 81.4% in the assay with WM3526; 85% with WM3619; 90.6% in the assay on WM451Lu.

Take `CCN(CC)CCNC(=O)c1c(C)[nH]c(/C=C2\C(=O)Nc3ccc(F)cc32)c1C` [sunitinib] + C=CCn1c(=O)c2cnc(Nc3ccc(N4CCN(C)CC4)cc3)nc2n1-c1cccc(C(C)(C)O)n1 [MK1775] (first compound 0.4 µM, partner dose 0.02 µM): the cell count in the assay on WM115 was found to be 94%; in the assay on WM1716 it was 111%; in the assay on WM1745, 78.9%; with WM3526, 72.6%; with WM3619, 99%; with WM451Lu, 126%.
